According to the supplement of paper PMC5499739:
The full ranking holds about 16,000 sequences; the median of “Z-score” is about -0.37, and the highest 2% start at about 3.1. This is one part of the list.

Each sequence was assayed on RBM10 RRM1-ZnF-RRM2 (GST-tagged construct) (assay: RNAcompete 7-mer binding Z-score; higher = stronger binding preference).
Procedure, shortened: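 GST-tagged RBM10 constructs (20 pmol) were mixed with a designed pool of 241 399 RNAs up to 41 nt (1.5 nmol), transcribed from microarray-derived DNA templates. Mixing was in 1 ml Hepes pH 7.8 buffer with KCl, NaCl, glycerol, DTT, BSA and glutathione Sepharose beads. Binding ran 30 min at 4°C, followed by four 2-min washes at 4°C, and bound RNA was identified by microarray hybridisation. Each heptamer motif received a one-sided Z-score for enrichment across probes containing it.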

Sequence | RNAcompete 7-mer binding Z-score
GCUCAGC | -0.577
CAUACGC | -0.573
UGGACGG | 3
CUUGACU | -0.959
ACCCACU | -0.744
CGCGGUA | 0.29
AGCACUC | -0.846
UAUCGGA | 0.104
UUAAUCU | -0.744
CGUUAAG | -0.293
UAAAGAC | -0.384
CACCUGG | -0.282
GCAGGCU | 0.461
UUCAUUC | -0.606
UGCUCCA | -0.679
GGCCACG | 0.0932
GGACAGA | 1.44
CCGCCGA | -0.69
CGGUGGU | 1.62
CGCAUGA | -0.122
UUUUCCC | -0.832
GUGCGAU | 0.0641
CUGCUCA | -0.766
GCCCUGG | -0.366
GGUCGUC | 0.341

Sequence | RNAcompete 7-mer binding Z-score
CUUAGCC | -0.865
AUGCUCG | -0.588
CUGGAAU | -0.205
CACUGGA | -0.0634
UGUAGAU | 0.235
CAGAUUG | -0.162
UCCUUCA | -0.788
AACAGCG | 0.625
GCUAUAU | -0.57
GUUAUUU | -0.541
AGCAUCU | -0.755
GUAACGA | 0.352
UGAAGUA | 0.0823
GUGAGUU | 0.603
UCCGUAC | -0.61
UUCUCCU | -0.846
AUAACCA | -0.326
UGGUACA | 0.949
CUGGGUG | 1.82
GUCGAAU | -0.078
AACGCAA | -0.169
CACAGCA | -0.366
UCUUACU | -0.814
CAAGCAC | -0.566
UGUUCAU | -0.555

Sequence | RNAcompete 7-mer binding Z-score
CCACAGA | -0.373
UCGGACC | -0.493
GCCUCAG | -0.719
CGCGGAC | -0.00148
CCCAGAC | -0.792
AUCGCUG | -0.617
UCAACCU | -0.774
UGCCCCG | -0.413
UCACGUG | -0.289
UGGCUAC | 0.108
UGCUUCA | -0.81
CUUAGAC | -0.723
UUGCGGU | -0.0161
CUAGUCC | -0.763
UUAAGGG | 1.55
CACUCCC | -0.781
UUCGUUC | -0.741
CUUCAAC | -0.759
UGCAUAG | 0.0204
AUGGGUA | 3.71
UUCCUCC | -0.883
CUCAGGG | 0.592
AUGCGCC | -0.511
UACCGAA | -0.428
CCCAUUU | -1.1

Sequence | RNAcompete 7-mer binding Z-score
CUCUAUA | -0.77
CAUAUGA | -0.18
GUUCACC | -0.697
CCUGAUA | -0.854
GUGUAAC | 0.661
GAGGUAG | 2.99
CUCUUGA | -0.854
GUAUGUU | -0.202
GAUCCAG | 0.0641
GCCUCUA | -0.887
UGCGCAC | -0.351
CAGAGCC | -0.562
CACCACU | -0.668
UAGUCCA | -0.683
GCCUUAA | -0.861
CUGCUCG | -0.861
AUACCCG | -0.493
ACCAGCU | -0.905
ACUAACC | -0.766
UAACUAG | -0.366
UAACAUU | -0.369
GCCCGGG | 0.177
AUCGAUU | -0.697
ACCCAUG | -0.584
AAAUUCG | -0.46

Sequence | RNAcompete 7-mer binding Z-score
GGGGUAU | 2.98
AAAAAAA | -0.49
UUUAGUG | -0.0197
CACCCUA | -0.621
UUCAUCA | -0.573
CGCUUAA | -0.839
AAUGAGA | 0.727
AAGGAGA | 3.18
GUACAAA | -0.0233
AAAGGGU | 4.71
AAGUAGU | 0.286
AUCUAUA | -0.533
AGAUCGG | 0.57
UCGCCAG | -0.595
CGGGGAG | 2.54
AAACUGA | -0.398
UCGCAUA | -0.289
CUGGAAA | 0.235
CUUUUCA | -0.664
AGUUCCA | -0.65
UGUUUCU | -0.413
ACGGGCU | 1.2
GUUGGGG | 3.69
GGGAGGC | 3.2
CGUCUGA | -0.712

Sequence | RNAcompete 7-mer binding Z-score
AACUGGC | 0.0714
UAGUGUU | -0.0197
GUGCAUU | -0.122
UAAGACC | -0.555
CCGGGUG | 1.62
GUCCUGG | 0.213
GGGCAUC | 1.56
AUGAGGA | 2.12
GAGCUUG | -0.191
GAACGCC | -0.53
CAUUGCA | -0.471
UUCGACG | -0.497
UCAUGUC | -0.726
GUACCGA | -0.14
ACAUCAU | -0.581
UACGAAG | 0.177
GCUCGAU | -0.602
AAAUUGG | 0.967
GGAAUUC | 0.246
CGUCAGU | -0.544
ACCCUGU | -0.916
UCCGAGA | -0.479
GUGACCC | -0.0525
AAGAGGC | 1.01
ACACCGC | -0.672

Sequence | RNAcompete 7-mer binding Z-score
UUUUAGA | -0.65
UACAACU | -0.599
AAUGCAC | -0.195
CCGCUUA | -0.956
GUGGGUU | 2.54
CCCCCCU | -0.362
UAGUACG | 0.177
AUCGGGC | 0.847
GGAUACA | 2.49
AGCUGAG | 0.101
UUAAGGC | 0.283
CCUACCC | -0.668
UCAUAAC | -0.562
ACUACUC | -0.905
CCUCGAC | -0.795
GACUGAU | -0.409
UGUACGA | 0.21
UCGGAUG | 0.512
UCAUCAC | -0.715
AUGCUUG | -0.61
UGCUGAA | -0.46
AUAUCCC | -0.69
UCUUCUU | -0.795
CGGGACU | 0.96
UAUAGUA | -0.14

Sequence | RNAcompete 7-mer binding Z-score
GAAGAUU | 0.0058
CGAAAAC | -0.457
CCGGGCC | -0.592
GUUGUUC | -0.293
GUCACGA | -0.264
AGAGCAG | 0.72
AAUUUCA | -0.57
AGCACUA | -0.176
ACCAAUA | -0.522
GUAUUAA | -0.187
CGUGAGG | 1.73
GGUCGGG | 2.72
GCAGCCC | -0.497
GUUUAGA | -0.169
UGUCUAU | -0.624
AUCAGAA | 0.0604
GAGAACA | 0.465
GGAUCGA | 0.691
AAGGACG | 2.66
CAAAUUG | -0.337
GCCGUAU | -0.446
GCCACGA | -0.366
UUAUAAA | -0.559
GUAAUUC | -0.238
CAGCAAA | -0.205

Sequence | RNAcompete 7-mer binding Z-score
ACGUAAG | 0.232
GAUCUAG | -0.42
CUACAGU | -0.781
UGACCGA | -0.384
CAUGUCG | -0.508
CAGAUAU | -0.406
ACUUUAC | -0.799
CAUGGAA | 1.36
GCUUGGG | 1.24
CAACACU | -0.69
GAGCCAU | -0.446
UUCGGGC | 0.075
CUGGUGA | 0.425
GACCUUA | -1.09
UCGAAUG | -0.198
UAUUGAA | -0.293
GAUUUAG | 0.385
AGAAUUU | -0.428
CGGUGCU | 0.286
GUCAGCU | -0.49
GUGCUUC | -0.486
AUCUUGC | -1.02
GGUGGCA | 2.34
UGAAGCG | 0.581
AGGGACG | 2.37

Sequence | RNAcompete 7-mer binding Z-score
AUAUCUU | -0.661
CCGAGUU | -0.788
UAGGAGU | 2.42
GGGCAUA | 1.8
AGCGAUU | -0.384
GUCCCCA | -0.347
CGUGUCU | -0.639
AAGCCUC | -0.861
UCUUGAU | -0.77
CCGGAAU | -0.0707
UUUUAGG | -0.067
GGCGAUA | 0.873
ACGCUCG | -0.65
AUCUAUG | -0.584
ACCAUAA | -0.533
UAGACUG | -0.264
UCUGCAC | -0.708
ACCGGAG | 0.683
CGAGGUG | 2.14
ACGAACG | 0.0058
AAUAGGA | 1.57
CAACUAA | -0.482
GCCCGCU | -0.712
AUAUGGG | 3.08
UUGGACC | -0.0452

Sequence | RNAcompete 7-mer binding Z-score
AACGGUU | 0.982
UUACGCG | -0.395
UGCGCUA | -0.57
CCUUGAG | -0.697
GAAUUUU | -0.573
AUGACUC | -0.592
GGCUUCU | -0.679
UCGAAGU | 0.00216
AAAGAAG | 1.18
AGUGACG | 1.3
AACCCUU | -1.03
ACGCGGC | -0.0634
GCAAAGG | 2.18
GCGCCGU | -0.318
CGCAUAG | -0.122
UAAUAGC | -0.581
UUGGUUC | -0.417
ACCCCGA | -0.464
CUCAGUC | -0.715
GGGAUUC | 1.24
UCGAGGC | 0.355
GGCUACA | 0.0167
AUCAUGU | -0.471
UAAACGG | 0.869
CGUCCGA | -0.832

Sequence | RNAcompete 7-mer binding Z-score
UUCUUAA | -0.744
GAGUUAG | 1.07
UUUACUC | -0.752
CACCAUU | -0.741
GGGGUGG | 4.09
UCGCUGA | -0.519
ACGUGCA | 0.0823
UAUUGCC | -0.803
AUGGUCG | 1.07
AGGAUGA | 1.57
UAGACCG | -0.344
CAUAGGU | 1.15
CCGCGUG | -0.0743
CCCGAGC | -0.675
CAACGGG | 2.59
UAGCGUU | -0.384
GAUAAUC | -0.388
AUGGGUC | 2.15
AGACCGA | -0.839
AGGAAUA | 0.978
GAGUAUG | 1.15
UAUCUCA | -0.704
UAGAUGU | 0.0641
GCUGCUC | -0.566
GAUUGAG | 1.36

Sequence | RNAcompete 7-mer binding Z-score
GUACUCA | -0.46
ACUGGUG | 0.865
CCGACGA | -0.5
UCGUUCG | -0.449
CCACAAC | -0.661
UGAGCGC | -0.154
AUAAAUC | -0.439
AACCGCU | -0.744
CAUUUUC | -0.959
UAGCGGA | 1.01
UGGUAAU | 0.563
AGUUGAC | -0.0598
UGGGUUU | 1.95
CGGUAGC | 0.119
UAGUCAU | -0.442
UUGUAAA | -0.286
UCUUCCA | -0.664
GCGCGGA | 0.945
CUAGCCA | -0.748
UAAGAGU | 0.439
ACCGCUC | -0.817
GAUUGCC | -0.672
AAUCCUG | -0.861
UGCUCAG | -0.453
GUUUGUG | 0.286

Sequence | RNAcompete 7-mer binding Z-score
CGACUAG | 0.122
AUAGCCA | -0.337
GGGGCUU | 0.953
GGUAGUG | 2.43
GUAGGCA | 2.19
ACCGAUA | -0.424
AGACACA | -0.311
CGAUUGC | -0.748
ACAGACU | -0.358
GAACCGG | 0.865
CAAGCCG | -0.613
AUGGCGC | 0.538
CUAUUUG | -0.606
CGCUCCU | -0.624
CCCCGGU | -0.289
CACUAAC | -0.701
GAGGCGC | 1.05
AAAGUUA | -0.0707
GAUAACU | -0.351
CUUACUA | -0.792
AAUGCGA | 0.286
CUCCCCU | -0.57
GUGGUUC | 0.716
CUAAACA | -0.737
CGCAGUC | -0.559

Sequence | RNAcompete 7-mer binding Z-score
GAGGGCA | 1.99
GUAUGGC | 1
CACUUAA | -0.967
GGGAGCU | 1.71
GCGGGUA | 2.5
GCCUUAG | -0.504
UACCAUC | -0.708
AUGCUAG | -0.289
AAUCUCU | -0.843
AGAUCUG | -0.475
AAUGUGC | -0.129
GCCGCGG | 0.137
UAUUGCG | -0.278
CGCGUGG | 1.41
ACUCGCG | -0.726
CGUUCCG | -0.624
GACUACA | -0.679
